In patent US20100093706A1, “MULTIMEDIATOR TRANSPORTER INHIBITORS FOR USE IN TREATMENT OF CENTRAL NERVOUS SYSTEM DISORDERS” (priority 2006, published 2010):
Some results were stated once for a whole list of compounds, not compound by compound.

Tests used:
Type in all cases: cell-based
DAT (h) = biological target: T1, DAT (h) (Homo sapiens, UniProt Q01959); details: for potency of inhibition of DAT uptake: statement in text on Table I
T1 construct: expressed in transfected cells
Method: (§1) Functional activity of the compounds was determined in vitro in cellular assays using recombinant human cell lines.

NET (h) = biological target: T2, NET (h) (Homo sapiens, UniProt P23975); details: statement in text on Table I
T2 construct: expressed in transfected cells; host or cells: MDCK
T2 sequence (P23975 whole entry): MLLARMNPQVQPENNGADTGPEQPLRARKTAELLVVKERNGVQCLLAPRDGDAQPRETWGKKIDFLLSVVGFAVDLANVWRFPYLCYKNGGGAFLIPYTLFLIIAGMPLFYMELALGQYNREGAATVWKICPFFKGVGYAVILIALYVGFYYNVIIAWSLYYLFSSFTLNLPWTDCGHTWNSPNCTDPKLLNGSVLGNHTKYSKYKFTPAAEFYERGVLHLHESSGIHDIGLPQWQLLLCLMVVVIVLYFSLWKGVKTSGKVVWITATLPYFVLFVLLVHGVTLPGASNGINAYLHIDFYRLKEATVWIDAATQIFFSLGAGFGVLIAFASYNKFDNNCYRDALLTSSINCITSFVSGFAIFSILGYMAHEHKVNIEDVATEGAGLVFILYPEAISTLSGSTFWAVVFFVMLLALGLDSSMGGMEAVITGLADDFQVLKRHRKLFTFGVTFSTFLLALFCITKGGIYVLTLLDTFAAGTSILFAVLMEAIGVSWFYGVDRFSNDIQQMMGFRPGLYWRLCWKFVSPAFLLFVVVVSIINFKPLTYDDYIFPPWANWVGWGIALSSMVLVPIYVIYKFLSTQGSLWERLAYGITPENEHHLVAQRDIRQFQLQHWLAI
Method: as §1

5-HT (h) = biological target: T3, 5-HT (h) (Homo sapiens, UniProt P31645); details: statement in text on Table I
T3 construct: expressed in transfected cells; host or cells: HEK-293
T3 sequence (P31645 whole entry): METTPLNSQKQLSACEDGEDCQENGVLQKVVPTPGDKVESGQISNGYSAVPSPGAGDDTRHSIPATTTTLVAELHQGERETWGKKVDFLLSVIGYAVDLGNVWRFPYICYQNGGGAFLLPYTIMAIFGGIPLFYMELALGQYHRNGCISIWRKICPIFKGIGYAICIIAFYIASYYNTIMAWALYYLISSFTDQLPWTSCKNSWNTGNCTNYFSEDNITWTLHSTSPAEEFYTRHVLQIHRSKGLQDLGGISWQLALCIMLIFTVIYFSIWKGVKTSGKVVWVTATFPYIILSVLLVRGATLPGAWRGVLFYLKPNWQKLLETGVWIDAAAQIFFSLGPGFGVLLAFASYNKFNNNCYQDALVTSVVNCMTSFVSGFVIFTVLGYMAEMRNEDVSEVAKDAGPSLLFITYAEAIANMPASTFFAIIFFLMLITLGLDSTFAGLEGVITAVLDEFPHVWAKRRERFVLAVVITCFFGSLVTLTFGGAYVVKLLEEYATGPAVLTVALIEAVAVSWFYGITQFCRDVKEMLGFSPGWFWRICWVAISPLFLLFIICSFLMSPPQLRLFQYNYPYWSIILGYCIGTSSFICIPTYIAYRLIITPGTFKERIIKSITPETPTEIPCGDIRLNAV
Method: as §1

[1] = from Table I human functional uptake

T1 sequence (Q01959 whole entry): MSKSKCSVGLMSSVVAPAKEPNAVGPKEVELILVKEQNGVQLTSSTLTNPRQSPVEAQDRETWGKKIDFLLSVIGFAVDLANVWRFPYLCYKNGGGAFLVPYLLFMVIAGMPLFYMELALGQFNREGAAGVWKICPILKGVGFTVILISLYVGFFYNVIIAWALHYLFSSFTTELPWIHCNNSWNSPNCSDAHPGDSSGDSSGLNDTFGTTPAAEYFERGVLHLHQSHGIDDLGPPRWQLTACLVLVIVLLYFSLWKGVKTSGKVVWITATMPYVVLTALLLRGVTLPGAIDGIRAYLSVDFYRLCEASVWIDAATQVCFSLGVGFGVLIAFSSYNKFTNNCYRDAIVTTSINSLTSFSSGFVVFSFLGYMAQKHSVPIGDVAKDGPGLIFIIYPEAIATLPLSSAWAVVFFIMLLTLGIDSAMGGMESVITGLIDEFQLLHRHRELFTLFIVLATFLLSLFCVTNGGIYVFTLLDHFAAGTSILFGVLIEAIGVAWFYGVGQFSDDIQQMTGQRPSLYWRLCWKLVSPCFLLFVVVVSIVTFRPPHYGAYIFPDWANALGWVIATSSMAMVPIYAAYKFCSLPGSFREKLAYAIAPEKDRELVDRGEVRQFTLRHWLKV

| SMILES | potency of inhibition of DAT uptake (DAT (h)) [nM] | potency of inhibition of NET uptake (NET (h)) [nM] | potency of inhibition of 5-HT uptake (5-HT (h)) [nM] | selectivity for DAT over 5-HT (DAT (h); [1]) | selectivity for DAT over NET (DAT (h); [1]) | selectivity for DAT and NET over 5-HT (DAT (h); [1]) |
| --- | --- | --- | --- | --- | --- | --- |
| C[C@@H]1CC[C@@H](COc2ccc(C(F)(F)F)cc2)CN1C[C@@H](O)C1(c2ccc(Cl)cc2)CCC1 [(21), (S)-1-[1-(4-Chlorophenyl)cyclobutyl]-2-{(2R,5R)-2-methyl-5-[4-(trifluoromethyl)phenoxy]methyl}-piperidin-1-ylethanol] | ≤ 20 | ≤ 20 | ≤ 20 |  |  |  |
| C[C@@H]1CC[C@H](COc2ccc(C(F)(F)F)cc2)CN1C[C@@H](O)C1(c2ccc(Cl)cc2)CCC1 [(20), (S)-1-[1-(4-Chlorophenyl)cyclobutyl]-2-{(2R,5S)-2-methyl-5-[4-(trifluoromethyl)phenoxy]methyl}piperidin-1-ylethanol] | ≤ 20 | ≤ 20 | ≤ 20 |  |  |  |
| C[C@H]1CC[C@@H](COc2ccc(C(F)(F)F)cc2)CN1CC1(c2ccc(Cl)cc2)CCC1 [(13), (2S,5R)-1-{[1-(4-Chlorophenyl)cyclobutyl]methyl}-2-methyl-5-{[4-(trifluoromethyl)phenoxy]methyl}piperidine] |  |  |  | at least 2000 fold | at least 100 fold |  |
| C[C@H]1CC[C@@H](COc2ccc(C(F)(F)F)cc2)CN1C[C@H](O)C1(c2ccc(Cl)cc2)CCC1 [(18), (R)-1-[1-(4-Chlorophenyl)cyclobutyl]-2-{(2S,5R)-2-methyl-5-[4-(trifluoromethyl)phenoxy]methyl}piperidin-1-ylethanol] | < 10 | < 10 |  |  |  | at least 200 fold |
| C[C@H]1CC[C@@H](COc2ccc(C(F)(F)F)cc2)CN1C[C@@H](O)C1(c2ccc(Cl)cc2)CCC1 [(17), (S)-1-[1-(4-Chlorophenyl)cyclobutyl]-2-{(2S,5R)-2-methyl-5-[4-(trifluoromethyl)phenoxy]methyl}piperidin-1-ylethanol] | < 10 | < 10 |  |  |  | at least 200 fold |
| C[C@@H]1CC[C@H](COc2ccc(C(F)(F)F)cc2)CN1C[C@H](O)C1(c2ccc(Cl)cc2)CCC1 [(19), (R)-1-[1-(4-Chlorophenyl)cyclobutyl]-2-{(2R,5S)-2-methyl-5-[4-(trifluoromethyl)phenoxy]methyl}piperidin-1-ylethanol] | < 10 | < 10 |  |  |  | at least 200 fold |
